The target in test [1] is T1, D(1A) dopamine receptor (Homo sapiens, UniProt P21728).
The target of test [2] is Voltage-gated inwardly rectifying potassium channel KCNH2 (Homo sapiens, UniProt Q12809). Format: functional.
Test [3] addresses T1, D(1A) dopamine receptor. This is another data set of the same source.
Further: assay procedure not described here.

T1 sequence (P21728 whole entry): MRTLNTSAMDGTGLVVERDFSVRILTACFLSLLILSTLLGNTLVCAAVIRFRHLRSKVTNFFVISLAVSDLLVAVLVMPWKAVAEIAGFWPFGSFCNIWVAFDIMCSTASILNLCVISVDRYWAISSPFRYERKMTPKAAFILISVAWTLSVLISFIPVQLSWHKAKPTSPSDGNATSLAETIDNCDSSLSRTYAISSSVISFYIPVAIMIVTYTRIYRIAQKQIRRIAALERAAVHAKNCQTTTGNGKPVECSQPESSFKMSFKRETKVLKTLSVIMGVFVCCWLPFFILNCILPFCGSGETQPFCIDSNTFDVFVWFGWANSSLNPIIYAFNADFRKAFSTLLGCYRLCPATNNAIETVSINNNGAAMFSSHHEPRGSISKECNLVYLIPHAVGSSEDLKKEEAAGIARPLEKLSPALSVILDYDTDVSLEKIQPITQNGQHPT
Chain of Voltage-gated inwardly rectifying potassium channel KCNH2 (Q12809 whole entry): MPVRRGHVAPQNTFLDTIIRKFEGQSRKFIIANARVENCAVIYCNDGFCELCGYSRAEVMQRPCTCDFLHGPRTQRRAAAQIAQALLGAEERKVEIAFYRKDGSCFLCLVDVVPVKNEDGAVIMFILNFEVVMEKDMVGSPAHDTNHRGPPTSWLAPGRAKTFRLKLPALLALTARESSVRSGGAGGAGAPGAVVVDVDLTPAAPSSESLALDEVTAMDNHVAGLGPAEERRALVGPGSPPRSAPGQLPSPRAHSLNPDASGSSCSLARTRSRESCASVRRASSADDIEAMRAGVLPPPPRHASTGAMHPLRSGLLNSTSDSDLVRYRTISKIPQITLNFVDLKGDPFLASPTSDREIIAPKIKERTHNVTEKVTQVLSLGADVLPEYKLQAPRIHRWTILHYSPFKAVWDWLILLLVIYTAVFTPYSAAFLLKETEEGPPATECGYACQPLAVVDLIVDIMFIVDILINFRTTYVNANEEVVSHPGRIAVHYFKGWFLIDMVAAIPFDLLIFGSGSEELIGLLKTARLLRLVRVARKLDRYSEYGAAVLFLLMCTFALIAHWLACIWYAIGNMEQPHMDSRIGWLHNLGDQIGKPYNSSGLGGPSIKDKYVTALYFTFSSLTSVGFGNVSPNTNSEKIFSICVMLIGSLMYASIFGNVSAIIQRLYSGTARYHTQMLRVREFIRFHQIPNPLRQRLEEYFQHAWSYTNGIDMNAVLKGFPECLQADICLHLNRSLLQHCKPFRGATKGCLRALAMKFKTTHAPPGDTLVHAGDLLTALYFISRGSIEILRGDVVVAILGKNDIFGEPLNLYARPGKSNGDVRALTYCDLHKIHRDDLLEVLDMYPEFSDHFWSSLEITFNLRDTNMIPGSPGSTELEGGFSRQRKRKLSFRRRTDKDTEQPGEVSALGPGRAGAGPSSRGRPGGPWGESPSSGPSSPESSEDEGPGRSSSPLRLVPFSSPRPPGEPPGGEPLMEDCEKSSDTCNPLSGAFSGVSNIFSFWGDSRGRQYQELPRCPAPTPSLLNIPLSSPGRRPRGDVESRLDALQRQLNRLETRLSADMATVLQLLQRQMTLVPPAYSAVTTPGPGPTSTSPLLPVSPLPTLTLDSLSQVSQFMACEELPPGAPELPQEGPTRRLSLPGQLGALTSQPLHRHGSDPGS

For the compound `CN(C)CCC=C1c2ccccc2COc2ccccc21` [DOXEPIN], the AC50 in test [1] amounted to 286 nM; in test [2], 4 µM; in test [3] it was 301 nM.

The AC50 is the midpoint of the concentration-response curve, whichever way the signal moves.

The record behind these values is ChEMBL document CHEMBL5291721, “A preclinical secondary pharmacology resource illuminates target-adverse drug reaction associations of marketed drugs” (Nat Commun, 2023).
